The whole screen tested about 39,000 compounds, of which about 220 (0.56%) showed activity. The list shows a part of the results.
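Note: static incubation at 37 °C against the wild-type strain, values averaged over two biological replicates.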

In the assay the test system is Escherichia coli K-12 BW25113. The assay is described as follows: relative growth (OD600 normalised to plate interquartile mean) (fraction); higher = less growth inhibition, active = 0.2 or less. To be noted: 50 µM; LB; incubation time: overnight (16-24 h).
`C[C@@H]1CN([C@@H](C)CO)C(=O)c2cc(C#CC3CCCCC3)cnc2O[C@@H]1CN(C)C(=O)Cc1ccccn1`: the relative growth is inactive: 1. As for `CN1CCN(C(=O)C[C@@H]2C=C[C@H](NC(=O)c3ccc4c(c3)OCO4)[C@H](CO)O2)CC1`, the figure is inactive: 0.998. As for `C[C@@H]1CCCCO[C@H](CN(C)Cc2ccc3c(c2)OCO3)[C@H](C)CN([C@H](C)CO)C(=O)c2cc(NS(=O)(=O)c3cccs3)ccc2O1`, the relative growth is inactive: 1.01. As for `C[C@@H]1CN([C@@H](C)CO)C(=O)c2cc(NC(=O)Nc3cccc4ccccc34)ccc2O[C@@H]1CN(C)S(=O)(=O)c1ccccc1`, the relative growth is inactive: 1.04. On to `C[C@@H]1CN([C@H](C)CO)C(=O)Cc2cc(NC(=O)C3CC3)ccc2O[C@H]1CN(C)C(=O)Nc1ccc(F)cc1`, for which the relative growth is inactive: 0.982.

For the molecule `C[C@@H]1CN([C@@H](C)CO)C(=O)c2cccc(NC(=O)c3cnccn3)c2O[C@H]1CN(C)C(=O)NC1CCCCC1`, the relative growth was inactive: 0.994. For `Cc1noc(C)c1S(=O)(=O)N(C)C[C@H]1OCCCC[C@H](C)Oc2ccc(NC(=O)Nc3ccc(C(F)(F)F)cc3)cc2C(=O)N([C@H](C)CO)C[C@@H]1C`, the relative growth was inactive: 1.01.

Take `C[C@H](CO)N1C[C@H](C)[C@@H](CN(C)C(=O)Nc2cccc3ccccc23)OCCCC[C@H](C)Oc2ccc(NS(=O)(=O)c3cn(C)cn3)cc2C1=O`: the relative growth is inactive: 0.994.

In the case of `Cc1nn(-c2nc3c(c(=O)n(CC(N)=O)c(=O)n3C)n2C)c(C)c1C`, the relative growth is inactive: 1.02. Regarding `C[C@H]1CN([C@@H](C)CO)C(=O)CCCn2nncc2CO[C@@H]1CN(C)S(=O)(=O)c1cn(C)cn1`, the relative growth was inactive: 0.984. On to `CCN(CC)C(=O)N1CCN(C)CC1.O=C(O)CC(O)(CC(=O)O)C(=O)O`, for which the relative growth is inactive: 1.1. As for `C[C@H](CO)N1C[C@H](C)[C@@H](CN(C)S(=O)(=O)c2ccccc2)Oc2ncc(C#CC3(O)CCCC3)cc2C1=O`, the relative growth is inactive: 0.954.

With `Nc1ncnc2c1ncn2[C@H]1C[C@H](O)[C@@H](CO)O1`, the relative growth was inactive: 0.976.

With `C[C@@H]1CN([C@H](C)CO)C(=O)c2cccc(NC(=O)Nc3ccc4c(c3)OCO4)c2O[C@@H]1CN(C)C(=O)Nc1ccc(C(F)(F)F)cc1`, the relative growth was inactive: 0.968. Regarding `C[C@@H]1CN([C@H](C)CO)S(=O)(=O)c2ccc(C#CCN(C)C)cc2O[C@@H]1CN(C)S(C)(=O)=O`, the relative growth is inactive: 1. Regarding `COCC#Cc1cnc2c(c1)C(=O)N([C@@H](C)CO)C[C@H](C)[C@H](CN(C)C(=O)Nc1ccccc1OC)O2`, the relative growth is inactive: 0.986.

Turning to `C=C(C)C1=NC(C)(C)C[C@H](C)O1`, the relative growth was inactive: 0.934. As to `Cc1cc(C(=O)Nc2cccc3c2O[C@H](CN(C)Cc2ccc(Oc4ccccc4)cc2)[C@H](C)CN([C@@H](C)CO)C3=O)n(C)n1`, the relative growth was inactive: 1.03. Consider `COc1ccc(S(=O)(=O)Nc2ccc3c(c2)C(=O)N([C@H](C)CO)C[C@H](C)[C@@H](CN(C)C(=O)C2CCCCC2)OCCCC[C@H](C)O3)cc1`, for which the relative growth was inactive: 1.01. In the case of `CCS(=O)(=O)N1CC[C@]2(CC1)CN([C@H](CO)c1c2c2ccc(cc2n1C)OC)C(=O)Nc1c(noc1C)C`, the relative growth is inactive: 0.997.

As for `Cc1noc(C)c1NC(=O)N(C)C[C@H]1Oc2ccc(NC(=O)NC(C)C)cc2C(=O)N([C@@H](C)CO)C[C@@H]1C`, the relative growth is inactive: 0.999. As to `C[C@@H]1CN([C@@H](C)CO)C(=O)c2cc(NC(=O)Nc3ccccc3)ccc2O[C@@H](C)CCCCO[C@@H]1CN(C)S(=O)(=O)c1ccc(Cl)cc1`, the relative growth is inactive: 1.03.

Regarding `C[C@@H]1CN([C@H](C)CO)C(=O)c2cc(NS(=O)(=O)c3ccc(F)cc3)ccc2O[C@@H]1CN(C)Cc1ccc(Oc2ccccc2)cc1`, the relative growth was inactive: 0.98. Turning to `COc1ccc(S(=O)(=O)Nc2cccc3c2O[C@@H](CN(C)S(=O)(=O)c2c(C)noc2C)[C@@H](C)CN([C@H](C)CO)C3=O)cc1`, the relative growth was inactive: 1.01. With `C[C@@H]1CN([C@H](C)CO)C(=O)Cc2cc(NC(=O)Nc3cccc4ccccc34)ccc2O[C@H]1CN(C)S(=O)(=O)c1cccs1`, the relative growth is inactive: 1.01. `COc1ccc(NC(=O)Nc2ccc3c(c2)C(=O)N([C@H](C)CO)C[C@@H](C)[C@@H](CN(C)S(=O)(=O)c2ccc(Cl)cc2)OCCCC[C@H](C)O3)cc1`: the relative growth is inactive: 1.05.

On to `C[C@@H]1CN([C@@H](C)CO)C(=O)c2cc(NC(=O)Nc3ccc(F)cc3)ccc2O[C@H]1CN(C)Cc1ccc(Oc2ccccc2)cc1`, for which the relative growth was inactive: 1.03.

For the molecule `C[C@@H]1CCCCO[C@@H](CN(C)S(=O)(=O)c2ccc(Cl)cc2)[C@H](C)CN([C@H](C)CO)C(=O)c2cc(NC(=O)CCC(F)(F)F)ccc2O1`, the relative growth is inactive: 1.01. Turning to `COc1ccc(S(=O)(=O)Nc2ccc3c(c2)C(=O)N([C@H](C)CO)C[C@@H](C)[C@H](CN(C)C(=O)NC(C)C)O3)cc1`, the relative growth is inactive: 1.01.

As for `C[C@@H]1CCCCO[C@H](CN(C)CC2CCCCC2)[C@H](C)CN([C@H](C)CO)C(=O)c2cc(NS(=O)(=O)c3cccs3)ccc2O1`, the relative growth is inactive: 1.04. Regarding `C[C@@H]1CCCCO[C@@H](CN(C)C(=O)NC2CCCCC2)[C@@H](C)CN([C@@H](C)CO)C(=O)c2cc(NC(=O)Nc3cccc4ccccc34)ccc2O1`, the relative growth is inactive: 1.01. As for `COc1ccc(C=CC(=O)c2ccccc2)cc1`, the relative growth is inactive: 0.984. For the molecule `COc1cccc(C#Cc2ccc([C@@H]3[C@H]4CN(S(=O)(=O)c5ccccc5C)CC(=O)N4[C@H]3CO)cc2)c1`, the relative growth was inactive: 1.04.

For `CCCC(=O)Nc1ccc2c(c1)C(=O)N(C)[C@H]1CC[C@H](CC(=O)NCCN3CCCCC3)O[C@H]1CO2`, the relative growth is inactive: 1.02. `CNC[C@@H]1Oc2ccc(NS(=O)(=O)c3cn(C)cn3)cc2CC(=O)N([C@@H](C)CO)C[C@H]1C`: the relative growth was inactive: 1.02. Regarding `C[C@@](Cc1ccc(O)c(O)c1)(NN)C(=O)O`, the relative growth is inactive: 0.903. As for `CC(C)NC(=O)N(C)C[C@H]1Oc2c(NC(=O)Cn3cnnn3)cccc2C(=O)N([C@H](C)CO)C[C@@H]1C`, the figure is inactive: 0.985; as for `C[C@@H]1CN([C@@H](C)CO)C(=O)c2cc(NC(=O)Nc3ccc4c(c3)OCO4)ccc2O[C@@H]1CN(C)Cc1ccc(C(=O)Nc2ccccc2N)cc1`, inactive: 0.97.

On to `Cc1noc(C)c1NC(=O)Nc1ccc2c(c1)CC(=O)N([C@H](C)CO)C[C@@H](C)[C@@H](CN(C)Cc1ccc(Cl)c(Cl)c1)O2`, for which the relative growth was inactive: 0.986. With `C[C@@H]1CCCCO[C@@H](CN(C)C(=O)C2CCCCC2)[C@@H](C)CN([C@@H](C)CO)C(=O)c2cc(NC(=O)Nc3ccccc3)ccc2O1`, the relative growth was inactive: 0.971. Regarding `C[C@H](CO)N1C[C@H](C)[C@@H](CN(C)C(=O)c2ccccn2)Oc2cc(C#Cc3ccccc3)ccc2S1(=O)=O`, the relative growth was inactive: 1.03. Regarding `CCCNC(=O)N1C[C@H](C)[C@H](OC)CN(C)C(=O)c2cc(NS(=O)(=O)CC(F)(F)F)ccc2OC[C@H]1C`, the relative growth was inactive: 0.995.

On to `Cc1ccc(S(=O)(=O)N(C)C[C@H]2OCCCC[C@@H](C)Oc3ccc(NC(=O)Nc4c(C)noc4C)cc3C(=O)N([C@H](C)CO)C[C@H]2C)cc1`, for which the relative growth was inactive: 0.972. `CC(C)NC(=O)N(C)C[C@@H]1Oc2ccc(NC(=O)Cn3cnnn3)cc2C(=O)N([C@H](C)CO)C[C@@H]1C`: the relative growth was inactive: 1. As for `COc1cc(C(=O)OCCN2CCN(CCOC(=O)c3cc(OC)c(OC)c(OC)c3)CC2)cc(OC)c1OC`, the relative growth is inactive: 1.04.

Take `C[C@@H]1CCCCO[C@H](CN(C)C(=O)Nc2ccc(F)cc2)[C@H](C)CN([C@@H](C)CO)C(=O)c2cc(NC(=O)Nc3cccc4ccccc34)ccc2O1`: the relative growth is inactive: 1.02. As for `CC(C)CC#Cc1ccc2c(c1)O[C@@H](CN(C)C(=O)NC1CCCC1)[C@H](C)CN([C@@H](C)CO)S2(=O)=O`, the figure is inactive: 1.04; as for `NC(=S)c1ccc(-n2cncn2)nc1`, inactive: 0.99; as for `COc1ccccc1S(=O)(=O)N[C@H]1C=C[C@@H](CC(=O)N2CCN(C)CC2)O[C@@H]1CO`, inactive: 1.01.

On to `C[C@@H]1CCCCO[C@@H](CN(C)C(=O)Nc2ccc(F)cc2)[C@H](C)CN([C@H](C)CO)C(=O)c2cc(NC(=O)NC3CCCCC3)ccc2O1`, for which the relative growth is inactive: 0.988. With `O=C(CN1CCOCC1)N[C@H]1CC[C@H](CCNC(=O)C2CCCCC2)O[C@H]1CO`, the relative growth was inactive: 1.02.

As for `C[C@@H]1CCCCO[C@@H](CN(C)Cc2ccc(C(F)(F)F)cc2)[C@H](C)CN([C@H](C)CO)C(=O)c2cc(NC(=O)c3ccccc3)ccc2O1`, the relative growth was inactive: 1.03. Consider `COC(=O)[C@@H]1[C@H](C(=O)O)[C@@]2(C(=O)Nc3ccc(C#Cc4ccc(OC)cc4)cc32)[C@@H](c2ccccc2)N1C`, for which the relative growth was inactive: 0.998. In the case of `CC(C)NC(=O)N(C)C[C@H]1Oc2ccc(NS(=O)(=O)c3ccc(Cl)cc3)cc2C(=O)N([C@H](C)CO)C[C@@H]1C`, the relative growth is inactive: 1.01. For the molecule `C=C1OC(=O)C2=C1O[C@H](/C=C/C)[C@@H](O)[C@@H]2O`, the relative growth is inactive: 1.01. Turning to `CC/C=C\C/C=C\C/C=C\C/C=C\C/C=C\CCCC(=O)O`, the relative growth is inactive: 0.985. In the case of `O=C(N[C@H]1CC[C@H](CC(=O)N2CCOCC2)O[C@@H]1CO)c1ccccn1`, the relative growth was inactive: 1.03. For `COC(=O)[C@H]1CCC(=O)N1`, the relative growth is inactive: 1.02. In the case of `Cc1noc(C)c1NC(=O)Nc1ccc2c(c1)CC(=O)N([C@H](C)CO)C[C@@H](C)[C@@H](CN(C)Cc1ccc(-c3ccccc3)cc1)O2`, the relative growth is inactive: 0.957. In the case of `Cn1c(=O)c2c(ncn2CCCN)n(C)c1=O`, the relative growth was inactive: 1.01. In the case of `C[C@@H]1CCCCO[C@H](CN(C)Cc2ccc(C(=O)Nc3ccccc3N)cc2)[C@@H](C)CN([C@@H](C)CO)C(=O)c2cc(N(C)C)ccc2O1`, the relative growth was inactive: 0.983.

(Values after the supplement of paper PMC9446081.)
